From patent US20260200947A1, “FUSED CYCLIC COMPOUNDS AND USE THEREOF” (Jacobio Pharmaceuticals Co., Ltd., priority 2022, published 2026)

Key:
[1] = test system: AsPC-1 cells (K-Ras G12D)

Molecule `C#Cc1c(F)ccc2cc(N)cc(-c3nc4c5c(nc(OC[C@@]67CCCN6C[C@H](F)C7)nc5c3F)N3CCCOC(C)[C@H]3N4C)c12` (stereo partly drawn) [Compound 42] has an IC50 [1] of 39.3 nM, an IC50 (SW620 cells (K-Ras G12V)) of 2.79 nM and an IC50 (AGS cells (K-Ras G12D)) of 4.71 nM.
